# The campaign covered roughly 150,000 compounds. About 540 (0.36%) showed an effect of 50% or more. Some of the results follow.
# Tested on: Plasmodium falciparum
# Experiment: Primary screen in NF54 nanoGlo assay, in single point, at 2uM, 72h; a lower Z score goes with more inhibition
# Type: functional, Erythrocyte
# Settings: timepoint 72 hour
SMILES,% Inhibition [%],Z score
C[N+]1(CCCC(=O)c2ccc3c(c2)OCCO3)CCC(c2ccccc2)C1 (stereo not drawn),73,-8.3
CCCCc1nc(CN(CC#N)C2CC2)cs1,-9,1.75
COc1cc(OC)nc(C(=O)N2CCCc3ccnc(N(C)C)c32)n1,-9,1.61
Cn1cccc1-c1cc2n(n1)CCC(=O)N2CCCC(=O)NCCc1ccc(Cl)cc1,-7,1.27
O=S(=O)(Nc1nc2ccccc2nc1NC1CCN(Cc2ccccc2)CC1)c1cccs1,-40,4.7
CCCN(C)C(=O)c1cc(-c2ccccc2)cn1CC,6,-0.87
CC1CN(C(=O)c2cn(Cc3ccccc3)nc2-c2ccccc2)CC(C)O1 (stereo not drawn),-1,0.14
CCc1ncncc1-c1nc([C@@H]2CCCN2C(=O)OC(C)(C)C)no1,-22,2.91
CC(=O)N[C@H]1CCN(Cc2cc(Cl)c(OC(C)C)c(Cl)c2)C1,-8,1.49
Nc1cncc(CCCCOCc2ccccc2)c1,-16,1.6
Cc1c(CNC2CCC(C)CC2)c(C(=O)O)c(C)n1Cc1cccc(Cl)c1 (stereo not drawn),-5,0.89
CN(C)c1noc(-c2coc(C3CCC3)n2)n1,4,-0.69
O=C([C@H]1CCc2cncn2C1)N(Cc1ccccc1F)C1CCC1,6,-0.65
O=C(NCCc1ccccn1)c1cn2c(n1)CC[C@H](c1cc(C(F)(F)F)cc(C(F)(F)F)c1)C2,3,-0.47
O=C(NCCCOCC1CCOC1)N1CCCC2CCCC21 (stereo not drawn),-4,0.48
CCC(CC)C(=O)N1CC[C@@](C)(O)[C@@H](NC(=O)c2ccccc2)[C@@H]1c1cccs1,3,-0.46
COc1ccc(C(=O)Nc2ccc3c(c2)N(C(=O)c2ccccc2)CCC3)cc1,-4,0.43
CCN1CCN(C2CCN(Cc3c[nH]c4ccccc34)CC2)CC1,5,-0.83
N#CC1CCN(C(=O)Nc2ccc(-n3ncc4ccccc43)cc2)CC1,-1,0.1
CCn1c(CN2CCN(CCOC)C(=O)C2)nc2ccccc21,-8,1.03
Cn1c(CN2CC[C@H](NC(=O)c3cccnc3)[C@@H](O)C2)nc2ccccc21,2,-0.31

SMILES,% Inhibition [%],Z score
N#Cc1cccc(C(=O)N2C[C@@H]3CC[C@H]2CN(C(=O)C2CCC2)C3)c1,0,0.02
c1ccc(-c2nc3c(c(N4Cc5ccccc5C4)n2)CCNC3)nc1,-4,0.52
CCc1ccc(-c2cn3c4ccccc4nc3n2CCN2CCCC2)cc1,-46,5.35
CC(C)Oc1ccc(C(=O)N[C@H]2C[C@@](C)(O)C2)c(Cl)c1,-6,0.85
Cc1cnn(-c2ccc(-c3noc(C4C[C@H]5C[C@@H](N)[C@H]5C4)n3)cc2)c1 (stereo partly drawn),6,-1.1
c1ccc2oc(-c3ccn(Cc4nc(CC5CC5)no4)n3)cc2c1,-4,0.79
CC1CC(C)CC(C(=O)NCC2(NC(=O)Cc3ccco3)CCCCC2)C1 (stereo not drawn),-12,2.32
CCN1C[C@@H](CN(C)Cc2nc(C3(c4ccc(C)cc4)CCCC3)no2)CC1=O,5,-0.95
COc1cc(C(=O)N2CCC(C(=O)N3CCCCCC3)CC2)cc(OC)c1OCc1ccccc1,-10,1.35
O=C(Cc1ccsc1)NC[C@H](O)c1ccc(-c2ccsc2)s1,6,-0.81
COc1ccc(C(=O)N2CC(N3CCCC3)C2)cc1F,-9,1.08
NC(=O)c1nc(-c2ccccc2)n2c1CCN(C(=O)Cn1cccn1)CC2,-8,1.06
CCN(C(=O)c1cncn1C)[C@@H](C)Cc1ccsc1,0,0.04
CC[C@H](NC(=O)c1cccnc1OC)C1CCOCC1,-4,0.85
O=C(c1ccncc1)N1CC[C@H]2[C@@H](CCCN2Cc2cc(F)c(F)c(F)c2)C1,2,-0.23
COc1ccc(-c2nnc(-c3ccc(-n4ccnc4)nc3)o2)cc1F,-16,1.88
CCc1cnc(C)nc1N1CCC(NCCCc2ccc(Cl)cc2)CC1,-17,2.16
COc1ccccc1CNC(=O)c1cnn(-c2ncccc2-c2nc(C)no2)c1C,-10,1.64
Cc1cc(-c2ccc(C(=O)N(C)C[C@H]3CCCCN3C)cc2)cs1,-14,1.38
CCc1cc(CC)n(C[C@H](O)C2(O)CCC2)n1,4,-0.69
O=C(Nc1ccccc1)c1cccc(CN2CCc3ccccc3C2)c1,-4,0.61

SMILES,% Inhibition [%],Z score
O=C(CN1CCOC2CCCCC21)c1c[nH]c2ccccc12 (stereo not drawn),-13,1.79
CC(C)CN1CCN(C(=O)[C@H](C)c2ccc(Cl)s2)CC1=O,-9,1.69
O=C(O)c1cc(C2CCN(C(=O)c3cccc4c3CCC4)CC2)no1,2,-0.35
CC(=O)Nc1c(C)ccc(NCCCOCCc2ccccc2)c1C,34,-3.8
Cc1nn(C)c(C)c1S(=O)(=O)N1CCC[C@H](C(=O)N2CCCn3nc(-c4ccc(F)cc4)cc3C2)C1,7,-1.17
COc1cc(-c2nc(=O)c(CCC(=O)NCC(C)C)n[nH]2)ccc1OCC1CCC1,9,-1.15
Cc1cnccc1CCNC(=O)NC1(C(F)(F)F)CCC1,-17,3.15
Cc1cc(-c2c(-c3ccccc3)ncn2CCc2ccc(O)cc2)[nH]n1,8,-1.12
Cc1ccc(CNC(=O)CN2C(=O)CCCc3cc(S(=O)(=O)N4CCCC4)ccc32)cc1,-2,0.27
O=C(Cn1cc(C(F)(F)F)ccc1=O)N1CCc2ccccc21,-13,2.5
Cn1ncc2c(=O)[nH]c(CN3CCN(CC(F)F)CC3)nc21,3,-0.31
Cc1ncn(C)c1C(=O)NCc1ccc(N2CCCC2=O)cc1,-6,1.09
O=C(O)c1ccc(N2C(=O)[C@H]3CCCC[C@H]3C2=O)cc1,-1,0.07
Cc1c(F)cccc1CN1CC[C@H](N2CCN(C)CC2)[C@H](CCCO)C1,-2,0.52
COc1ccc(CNC(=O)c2ccc(Cl)c(N3C(=O)CCS3(=O)=O)c2)cc1,-9,1.09
Cc1cc(C(F)(F)F)n(C[C@@H](C)Cn2cc(-c3cncnc3)nn2)n1,-6,0.77
Cc1cc(C)nc(O[C@H]2CCN(C(=O)c3ccc4[nH]cnc4c3)C2)n1,-14,2.15
Cc1cc(C(=O)N2CCO[C@H](C(F)F)C2)c(C)n1C1CC1,-12,1.39
C[C@@H]1CN(C(=O)c2ccc(Cl)c(Cl)c2)CC[C@@]1(O)C1CCOCC1,-6,1.23
O=C(NC1CCN(c2ccc(-c3cccc(F)c3)nn2)CC1)c1ccccn1,15,-1.71
O=S(=O)(c1ccc2c(c1)CCCC2)N1CCCN(c2nc3cccnc3s2)CC1,-25,2.48

SMILES,% Inhibition [%],Z score
Cc1nc2cc(NC(=O)C3=NNC(=O)CC3)ccc2o1,9,-1.38
COCC[C@]1(NC(=O)c2ccc(F)cc2)CCN(Cc2ccc(C(C)C)cc2)C1,-12,1.56
CCCCS(=O)(=O)NCc1csc(-c2ccn(C)n2)n1,-6,0.69
Cc1cccnc1N1CCN(C(=O)C[C@@H]2NC(=O)NC2=O)CC1,3,-0.63
COc1nc(C)c(C(=O)N2C[C@@H](C)[C@@](C)(O)C2)s1,-2,0.3
CCCCn1nc(CC(C)C)nc1Cc1ccncc1,-7,0.94
Cc1ccc([C@@H]2CCCCN2CCn2cccn2)o1,-12,1.78
COC(=O)NCC1CCN(C(=O)OC)CC1,-7,1.11
O=C1N[C@@H](c2cnn(Cc3ccccc3)c2)Nc2ccccc21,0,0.02
Cc1cc(O[C@H]2CCN(C(=O)NCCc3ccccc3)C2)nc(C)n1,2,-0.36
CS(=O)(=O)N1CCN(C(=O)c2cc(=O)[nH]c3cc(F)ccc23)CC1,-9,1.01
CC(C)[C@H](CNC(=O)c1cc(F)cc(Cl)c1)N(C)C,10,-1.95
COCc1ccccc1C(=O)N1CC[C@H](C)S(=O)(=O)CC1,-11,1.56
CC[C@H](C)NC(=O)CCc1nc(-c2nn(-c3ccccc3)c(=O)n(C)c2=O)no1,-8,1.35
COCCN1C(=O)CO[C@H]2CN(C(=O)c3ccc(F)cc3)C[C@H]21,24,-2.76
Cc1n[nH]cc1CN(C)C(=O)CC[C@H](C)N1CCOCC1,-5,0.86
O=C1CC(C(=O)N2CCCCC2c2nc(-c3ccccc3)c[nH]2)CN1 (stereo not drawn),37,-1.78
COc1ccnc(CN2CCC(c3cc(Cc4ccccc4)n[nH]3)CC2)c1,2,-0.24
CCCCc1nc(Cn2ccnn2)no1,-3,0.31
O=C(NCc1cccs1)N1CC(n2nccn2)C1,17,-1.89
CCc1cnc(CCNc2ccccn2)s1,10,-1.34

# — ChEMBL document CHEMBL4888484, “Replenishing the malaria drug discovery pipeline: Screening and hit evaluation of the MMV Hit Generation Library 1 (HGL1) against asexual blood stage Plasmodium falciparum ,using a nano luciferase reporter read-out” (2022)
